Reference: patent US20250179210A1, “ANTI-CEACAM5 ANTIBODIES AND CONJUGATES AND USES THEREOF” (Merck Patent GmbH, priority 2022, published 2025)

These molecules were tested on MKN45 cells (assay: Internalization assay using Cell Discoverer (pHrodo labeled antibodies)). Conditions: not tested, expected.
Type: cell-based, human
Description: A relevant characteristic of an ADC is its internalization into a target-expressing cell and lysosomes, and thus internalization is a relevant property of antibodies to be used as part of ADCs. Antibody internalization rate into the late endosome and lysosome (low pH vesicles) can be monitored by directly labeling the antibodies with a pH-sensitive dye (pHrodo) which emits strong fluorescence at a pH lower than 6.0 upon excitation. This fluorescence can be imaged in the Cell-Discoverer7 (Zeiss) and internalization rate can be calculated.
To analyze the internalization rates of several antibodies, MKN45 cells were seeded in a 96 well, dark, flat clear bottom plate (Cellvis) at 25,000 cells/well. Cells were cultivated over night with 100 μl/well of RMPI-1640+10% FBS (Thermo). Cell media was removed, and cells were stained with 100 μl of 10 μg/ml Hoechst dye diluted in PBS×1 for 15 min at room temperature (RT) in the dark. Cells were then washed twice with PBS×1.
Plate was incubated in the Cell Discoverer at 37° C., 5% CO2, for 20 hours, and images were acquired every 20 minutes, as further described below.
Internalization of pHrodo labeled antibodies into the late endosomes and lysosomes of cells was imaged by Cell-Discoverer7 (Zeiss) using fluorescence at excitation of 567 nm and emission detector of 592/25 nm. Cell nuclei were labeled with Hoechst and imaged at excitation of 385 nm and emission detector of 425/30 nm.
Fluorescence of each well was recorded every 20 min for 20 h. Analysis of Sum Fluorescence Intensity per cell (SFI) was calculated by the Zen Software (ZEN3.1) and Excel analysis of linear regression.

Row | Molecule | internalization properties (expected)
1 | mAb7-M: anti-CEACAM5 mAb, LALA mutation, MTG Tag; HC SEQ ID NO: 51, LC SEQ ID NO: 36 (antibody) heavy: EVQLQESGPGLVKPSQTLSLTCTVSDGSVSRGGYYLTWIRQHPGKGLEWIGYIYYSGSTYFNPSLRSRVTMSVDTSKNQFSLKLSSVTAADTAVYYCARGIAVAPFDYWGQGTLVTVSSASTKGPSVFPLAPSSKSTSGGTAALGCLVKDYFPEPVTVSWNSGALTSGVHTFPAVLQSSGLYSLSSVVTVPSSSLGTQTYICNVNHKPSNTKVDKRV[letters of human IgG1 Fc with changes left out] light: EIVLTQSPATLSVSPGERATLSCRTSQSVRSNLAWYQQKPGQAPRLLIYAASTRATGIPARFSGSGSGTEFTLTISSLQSEDFAVYYCQQYTNWPFTFGPGTKVDIKRTVAAPSVFIFPPSDEQLKSGTASVVCLLNNFYPREAKVQWKVDNALQSGNSQESVTEQDSKDSTYSLSSTLTLSKADYEKHKVYACEVTHQGLSSPVTKSFNRGECGGTLQSPP | expected to show internalization properties corresponding to mAb1
2 | mAb1-M: anti-CEACAM5 mAb, LALA and YTE mutation; HC SEQ ID NO: 34, LC SEQ ID NO: 14 (antibody) heavy: EVQLQESGPGLVKPSQTLSLTCTVSDGSVSRGGYYLTWIRQHPGKGLEWIGYIYYSGSTYFNPSLRSRVTMSVDTSKNQFSLKLSSVTAADTAVYYCARGIAVAPFDYWGQGTLVTVSSASTKGPSVFPLAPSSKSTSGGTAALGCLVKDYFPEPVTVSWNSGALTSGVHTFPAVLQSSGLYSLSSVVTVPSSSLGTQTYICNVNHKPSNTKVDKRVEPKSCDKTHTCPPCPAPEAAGGPSVFLFPPKPKDTLYITREPEVTCVVVDVSHEDPEVKFNWYVDGVEVHNAKTKPREEQYNSTYRVVSVLTVLHQDWLNGKEYKCKVSNKALPAPIEKTISKAKGQPREPQVYTLPPSREEMTKNQVSLTCLVKGFYPSDIAVEWESNGQPENNYKTTPPVLDSDGSFFLYSKLTVDKSRWQQGNVFSCSVMHEALHNHYTQKSLSLSPG light: EIVLTQSPATLSVSPGERATLSCRTSQSVRSNLAWYQQKPGQAPRLLIYAASTRATGIPARFSGSGSGTEFTLTISSLQSEDFAVYYCQQYTNWPFTFGPGTKVDIKRTVAAPSVFIFPPSDEQLKSGTASVVCLLNNFYPREAKVQWKVDNALQSGNSQESVTEQDSKDSTYSLSSTLTLSKADYEKHKVYACEVTHQGLSSPVTKSFNRGEC | expected to show internalization properties corresponding to mAb1
3 | mAb6-M: anti-CEACAM5 mAb, LALA mutation; HC SEQ ID NO: 51, LC SEQ ID NO: 14 (antibody) heavy: EVQLQESGPGLVKPSQTLSLTCTVSDGSVSRGGYYLTWIRQHPGKGLEWIGYIYYSGSTYFNPSLRSRVTMSVDTSKNQFSLKLSSVTAADTAVYYCARGIAVAPFDYWGQGTLVTVSSASTKGPSVFPLAPSSKSTSGGTAALGCLVKDYFPEPVTVSWNSGALTSGVHTFPAVLQSSGLYSLSSVVTVPSSSLGTQTYICNVNHKPSNTKVDKRV[letters of human IgG1 Fc with changes left out] light: EIVLTQSPATLSVSPGERATLSCRTSQSVRSNLAWYQQKPGQAPRLLIYAASTRATGIPARFSGSGSGTEFTLTISSLQSEDFAVYYCQQYTNWPFTFGPGTKVDIKRTVAAPSVFIFPPSDEQLKSGTASVVCLLNNFYPREAKVQWKVDNALQSGNSQESVTEQDSKDSTYSLSSTLTLSKADYEKHKVYACEVTHQGLSSPVTKSFNRGEC | expected to show internalization properties corresponding to mAb1
4 | mAb3-M: anti-CEACAM5 mAb, LALA, YTE, K222R, MTG Tag; HC SEQ ID NO: 35, LC SEQ ID NO: 36 (antibody) heavy: EVQLQESGPGLVKPSQTLSLTCTVSDGSVSRGGYYLTWIRQHPGKGLEWIGYIYYSGSTYFNPSLRSRVTMSVDTSKNQFSLKLSSVTAADTAVYYCARGIAVAPFDYWGQGTLVTVSSASTKGPSVFPLAPSSKSTSGGTAALGCLVKDYFPEPVTVSWNSGALTSGVHTFPAVLQSSGLYSLSSVVTVPSSSLGTQTYICNVNHKPSNTKVDKRVEPKSCDRTHTCPPCPAPEAAGGPSVFLFPPKPKDTLYITREPEVTCVVVDVSHEDPEVKFNWYVDGVEVHNAKTKPREEQYNSTYRVVSVLTVLHQDWLNGKEYKCKVSNKALPAPIEKTISKAKGQPREPQVYTLPPSREEMTKNQVSLTCLVKGFYPSDIAVEWESNGQPENNYKTTPPVLDSDGSFFLYSKLTVDKSRWQQGNVFSCSVMHEALHNHYTQKSLSLSPG light: EIVLTQSPATLSVSPGERATLSCRTSQSVRSNLAWYQQKPGQAPRLLIYAASTRATGIPARFSGSGSGTEFTLTISSLQSEDFAVYYCQQYTNWPFTFGPGTKVDIKRTVAAPSVFIFPPSDEQLKSGTASVVCLLNNFYPREAKVQWKVDNALQSGNSQESVTEQDSKDSTYSLSSTLTLSKADYEKHKVYACEVTHQGLSSPVTKSFNRGECGGTLQSPP | expected to show internalization properties corresponding to mAb1
5 | mAb2-M: anti-CEACAM5 mAb, LALA, YTE, MTG Tag; HC SEQ ID NO: 34, LC SEQ ID NO: 36 (antibody) heavy: EVQLQESGPGLVKPSQTLSLTCTVSDGSVSRGGYYLTWIRQHPGKGLEWIGYIYYSGSTYFNPSLRSRVTMSVDTSKNQFSLKLSSVTAADTAVYYCARGIAVAPFDYWGQGTLVTVSSASTKGPSVFPLAPSSKSTSGGTAALGCLVKDYFPEPVTVSWNSGALTSGVHTFPAVLQSSGLYSLSSVVTVPSSSLGTQTYICNVNHKPSNTKVDKRVEPKSCDKTHTCPPCPAPEAAGGPSVFLFPPKPKDTLYITREPEVTCVVVDVSHEDPEVKFNWYVDGVEVHNAKTKPREEQYNSTYRVVSVLTVLHQDWLNGKEYKCKVSNKALPAPIEKTISKAKGQPREPQVYTLPPSREEMTKNQVSLTCLVKGFYPSDIAVEWESNGQPENNYKTTPPVLDSDGSFFLYSKLTVDKSRWQQGNVFSCSVMHEALHNHYTQKSLSLSPG light: EIVLTQSPATLSVSPGERATLSCRTSQSVRSNLAWYQQKPGQAPRLLIYAASTRATGIPARFSGSGSGTEFTLTISSLQSEDFAVYYCQQYTNWPFTFGPGTKVDIKRTVAAPSVFIFPPSDEQLKSGTASVVCLLNNFYPREAKVQWKVDNALQSGNSQESVTEQDSKDSTYSLSSTLTLSKADYEKHKVYACEVTHQGLSSPVTKSFNRGECGGTLQSPP | expected to show internalization properties corresponding to mAb1
